{
  "source": "PubChem BioAssay AID504332",
  "about": "(National Center for Advancing Translational Sciences (NCATS), 2011)",
  "note": "Screen size: about 350,000 compounds; about 31,000 (8.9%) were called active. The shares of active, inactive and inconclusive entries below differ from those in the screen. Calls come from the whole dose curve; as a rule, active = well fitted inhibition curve with a large enough effect; inconclusive = small, poorly fitted or top-dose-only effect; inactive = no such curve, though single readings can be large or run the other way. Potencies beside an inconclusive call are fits to weak or partial responses and may not hold up. % is set by controls: 0 for no effect and ±100 for the full control effect; potency is the fitted concentration of half-maximal effect; tags give direction and shape of the fitted curve.",
  "data": [
    {"target": "Histone-lysine N-methyltransferase EHMT2 (Homo sapiens) (UniProt Q96KQ7)", "sequence (Q96KQ7 whole entry, looked up)": "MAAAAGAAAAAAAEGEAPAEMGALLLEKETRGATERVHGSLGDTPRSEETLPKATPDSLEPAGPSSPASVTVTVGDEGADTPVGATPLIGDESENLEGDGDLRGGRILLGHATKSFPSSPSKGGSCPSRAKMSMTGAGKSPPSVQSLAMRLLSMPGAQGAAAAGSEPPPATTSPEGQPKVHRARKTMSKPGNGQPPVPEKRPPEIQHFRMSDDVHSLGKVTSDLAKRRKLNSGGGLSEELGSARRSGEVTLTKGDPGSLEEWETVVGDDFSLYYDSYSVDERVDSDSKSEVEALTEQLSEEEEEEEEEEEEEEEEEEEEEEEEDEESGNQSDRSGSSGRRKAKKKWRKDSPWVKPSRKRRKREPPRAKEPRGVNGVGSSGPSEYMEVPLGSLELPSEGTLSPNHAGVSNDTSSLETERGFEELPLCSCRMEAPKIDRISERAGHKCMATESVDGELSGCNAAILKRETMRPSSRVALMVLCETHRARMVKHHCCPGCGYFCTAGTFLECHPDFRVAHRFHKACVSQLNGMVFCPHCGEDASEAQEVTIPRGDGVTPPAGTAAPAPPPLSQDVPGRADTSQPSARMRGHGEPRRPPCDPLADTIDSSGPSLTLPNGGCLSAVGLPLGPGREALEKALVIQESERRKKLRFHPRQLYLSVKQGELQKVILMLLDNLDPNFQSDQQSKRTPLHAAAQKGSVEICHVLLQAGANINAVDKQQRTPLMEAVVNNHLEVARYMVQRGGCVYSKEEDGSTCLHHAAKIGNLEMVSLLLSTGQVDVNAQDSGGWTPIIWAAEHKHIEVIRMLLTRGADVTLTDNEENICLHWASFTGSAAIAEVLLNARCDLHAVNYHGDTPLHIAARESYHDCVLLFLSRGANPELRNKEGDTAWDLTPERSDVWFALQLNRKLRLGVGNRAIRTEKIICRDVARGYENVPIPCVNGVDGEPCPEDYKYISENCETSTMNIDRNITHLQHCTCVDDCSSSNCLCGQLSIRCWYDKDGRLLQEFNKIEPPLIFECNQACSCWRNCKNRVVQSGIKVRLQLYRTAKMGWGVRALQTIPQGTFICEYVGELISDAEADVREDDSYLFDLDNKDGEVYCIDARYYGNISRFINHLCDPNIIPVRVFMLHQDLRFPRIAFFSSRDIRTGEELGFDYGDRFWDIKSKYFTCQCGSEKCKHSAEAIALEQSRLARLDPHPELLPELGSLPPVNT", "assay": "qHTS Assay for Inhibitors of Histone Lysine Methyltransferase G9a; note: nearly all actives have a fitted effect of over 75% in size", "conditions": "G9a H3K9 monomethylation, AlphaScreen, 2 h; activity, negative = inhibition: at 59 µM (top of the series) unless noted", "how_it_was_run": "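G9a (20 nM) was preincubated 15 min with compound, then reacted 2 h at room temperature with 500 nM biotin-H3K9 peptide and 20 µM SAM. Monomethyl-H3K9 detected by AlphaScreen using anti-H3K9me1 antibody.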", "values": [
      {"smiles": "O=C(Cn1nc(CNc2ccc(Br)cc2)[n+]2c1CCCCC2)c1ccc([N+](=O)[O-])cc1", "Potency": "active: 70.8 µM"},
      {"smiles": "CN(C)c1ccc(CN(Cc2ccco2)C(=O)COc2ccc(F)cc2)cc1", "Potency": "active: 15.8 µM"},
      {"smiles": "O=C(COC(=O)c1cccc(S(=O)(=O)N2CCc3ccccc32)c1)Nc1ncc(Cl)cc1Cl", "Potency": "inconclusive: 25.1 µM [inhibitor, single point]"},
      {"smiles": "O=c1cc(-c2ccc(O)c(O)c2)oc2ccccc12", "activity, negative = inhibition": "inconclusive: -72.2% [inhibitor] [at 2.33 µM]"},
      {"smiles": "CN(C)c1cc[n+](CC(=O)c2ccc(-c3ccccc3)cc2)cc1", "activity, negative = inhibition": "inactive: -42.8% [at 102 µM]"},
      {"smiles": "Nc1ncc(-c2cc3ccccc3oc2=O)s1", "Potency": "inconclusive: 39.8 µM [inhibitor, partial curve, poor fit]"},
      {"smiles": "CCOCCc1nn2c(=O)cc(COC(=O)c3ccccc3NC(=O)c3ccccc3F)nc2s1", "activity, negative = inhibition": "inactive: -3.91% [at 12.7 µM]"},
      {"smiles": "Cc1cccc(NC(=O)CN2C(=O)N/C(=C\\c3ccc(-c4cccc(C(=O)O)c4)o3)C2=O)c1", "Potency": "active: 44.7 µM"},
      {"smiles": "COc1ccc(C(=S)N2CCOCC2)cc1OS(=O)(=O)c1ccccc1[N+](=O)[O-]", "Potency": "active: 3.16 µM"},
      {"smiles": "COc1cc(/C=N/Nc2nc(-c3ccc(S(=O)(=O)N(C)C)cc3)cs2)ccc1O", "Potency": "active: 14.1 µM"},
      {"smiles": "O=C(Nc1ccccc1)OCc1cc(-c2ccc(Cl)cc2)on1", "activity, negative = inhibition": "inactive: 22% [at 102 µM]"},
      {"smiles": "Cc1nn(C)c(C)c1/C=C1/SC(=S)NC1=O", "Potency": "inconclusive: 22.4 µM [inhibitor, single point]"},
      {"smiles": "Cc1ccc(Cn2c(SCC(C)C)nc3c2c(=O)[nH]c(=O)n3C)cc1", "Potency": "inconclusive: 25.1 µM [inhibitor, partial curve, poor fit]"},
      {"smiles": "N#Cc1c[nH]n2c(NC3CCCC3)c(-c3cccc(Br)c3)nc12", "activity, negative = inhibition": "inactive: -12.7%"},
      {"smiles": "COC(=O)c1sccc1S(=O)(=O)N(CC(=O)NCc1ccc(C)cc1)c1ccccc1", "activity, negative = inhibition": "inactive: 12%"},
      {"smiles": "CCN(CC)CCNC(=O)c1ccc(NC(=O)c2cccc(S(=O)(=O)Nc3ccc(C)cc3)c2)cc1", "Potency": "inconclusive: 50.1 µM [inhibitor, partial curve, poor fit]"},
      {"smiles": "Cc1onc(-c2ccccc2)c1C(=O)Nc1ccc(S(=O)(=O)N2CCCCC2)cc1", "Potency": "inconclusive: 79.4 µM [inhibitor, single point]"},
      {"smiles": "CC(O)CNc1nc2c(c(=O)n(C)c(=O)n2C)n1Cc1cccc(Br)c1", "note": "(stereo not drawn)", "Potency": "inconclusive: 79.4 µM [inhibitor, partial curve, poor fit]"},
      {"smiles": "CC(C)CCn1c(=O)c2cccnc2n(CC(=O)Nc2ccccc2)c1=O", "activity, negative = inhibition": "inactive: -4.77%"},
      {"smiles": "COc1ccccc1CNc1ccc(Br)cn1", "activity, negative = inhibition": "inactive: 45.5% [at 102 µM]"},
      {"smiles": "CCc1ccc(CNc2ncc(-c3cccc(OC)c3)n2C)cc1", "Potency": "active: 3.98 µM"},
      {"smiles": "C=CCn1c(NC(=O)c2ccco2)c(S(=O)(=O)c2ccccc2)c2nc3ccccc3nc21", "Potency": "inconclusive: 39.8 µM [inhibitor, single point]"},
      {"smiles": "Cc1cc(F)ccc1S(=O)(=O)N1CCCOC1CNC(=O)C(=O)NCCN1CCOCC1", "note": "(stereo not drawn)", "Potency": "inconclusive: 3.55 µM [inhibitor, full curve]"},
      {"smiles": "Cc1ccc[n+](-c2[nH]c(=O)sc2/C=N/N=C(\\[O-])CCn2c3ccccc3c3ccccc32)c1", "activity, negative = inhibition": "inactive: 0.221% [at 102 µM]"},
      {"smiles": "O=C(CN1C(=O)/C(=C/c2ccc(C(F)(F)F)cc2)Sc2ccccc21)NCCCN1CCOCC1", "activity, negative = inhibition": "inactive: -7.08%"},
      {"smiles": "Nc1c(C(=O)CSc2ncccn2)c(=O)[nH]c(=O)n1C1CC1", "Potency": "inconclusive: 35.5 µM [inhibitor, single point]"},
      {"smiles": "C=CCOc1cccc(C2/C(=C(/O)c3ccccc3)C(=O)C(=O)N2CCN2CCOCC2)c1", "note": "(stereo not drawn)", "Potency": "inconclusive: 22.4 µM [inhibitor, partial curve, poor fit]"},
      {"smiles": "O=C(NCc1ccccn1)C(=O)Nc1ccccc1", "activity, negative = inhibition": "inactive: -2.52% [at 102 µM]"},
      {"smiles": "O=C(Nc1ccc(-c2nc3ccccc3s2)cc1)c1cc(-n2cnnc2)ccc1Cl", "activity, negative = inhibition": "inactive: -36.3% [at 0.501 µM]"},
      {"smiles": "COC(=O)c1sccc1NC(=O)/C=C/C(=O)O", "Potency": "inconclusive: 79.4 µM [inhibitor, single point]"},
      {"smiles": "CN(C)c1ccc(S(=O)(=O)NCC(=O)OCC(=O)Nc2cccc(Cl)c2)cc1[N+](=O)[O-]", "Potency": "active: 56.2 µM"},
      {"smiles": "c1ccc(Nc2nc(N3CCOCC3)c3ccccc3n2)cc1", "Potency": "inconclusive: 1.58 µM [inhibitor, single point]"},
      {"smiles": "Cc1ccc(N(C)C(=O)CCS(=O)(=O)c2ccc3c(c2)oc(=O)n3C)cc1", "Potency": "inconclusive: 89.1 µM [inhibitor, single point]"},
      {"smiles": "Cn1c(SCC(=O)Nc2nccs2)nnc1-c1ccco1", "Potency": "inconclusive: 35.5 µM [inhibitor, single point]"},
      {"smiles": "O=C(O)CCC(=O)Nc1ccc(N2CCCCCC2)cc1", "Potency": "active: 0.891 µM"},
      {"smiles": "CC(=O)Nc1ccc(CN2CCCN(C)CC2)cc1", "Potency": "active: 20 µM"},
      {"smiles": "CC1=NN(c2ccccc2)C(=O)C1C(=O)c1ccc([N+](=O)[O-])cc1", "note": "(stereo not drawn)", "Potency": "inconclusive: 89.1 µM [inhibitor, partial curve]"},
      {"smiles": "CCOC(=O)Cc1cc(C(=O)Nc2ccc(Br)cc2)sc1-c1ccc(C)cc1", "activity, negative = inhibition": "inactive: 26.7%"},
      {"smiles": "CCOc1ccc(-c2c(C(=O)N/N=C/c3ccoc3)nnn2-c2nonc2N)cc1", "activity, negative = inhibition": "inactive: 61.9% [at 102 µM]"},
      {"smiles": "Cc1cccc(C)c1NC(=O)Cn1c(=O)n(Cc2ccc(C(=O)NCc3ccco3)cc2)c(=O)c2sccc21", "Potency": "inconclusive: 11.2 µM [inhibitor, partial curve, poor fit]"},
      {"smiles": "C1CCCC(NC2=NCCO2)CCC1", "activity, negative = inhibition": "inactive: 2.19% [at 102 µM]"},
      {"smiles": "O=C(NC(=S)N1CCCC1)c1ccc(Cl)cc1", "activity, negative = inhibition": "inactive: 31.1% [at 102 µM]"},
      {"smiles": "FC(F)(F)c1cccc(-c2ccc(-c3csnn3)o2)c1", "Potency": "inconclusive: 35.5 µM [inhibitor, single point]"},
      {"smiles": "NC(=O)N/N=C/c1ccc(-c2ccc(S(=O)(=O)Nc3ncccn3)cc2)o1", "Potency": "active: 11.2 µM"},
      {"smiles": "CSc1cccc(NC(N)=S)c1", "Potency": "inconclusive: 50.1 µM [inhibitor, partial curve]"},
      {"smiles": "O=C(CCC(=O)c1ccc(Cl)s1)Nc1ncccc1O", "Potency": "inconclusive: 31.6 µM [inhibitor, single point]"},
      {"smiles": "Cc1ccc(NC(=S)NNC(=O)c2cccc([N+](=O)[O-])c2)cc1Cl", "Potency": "active: 12.6 µM"},
      {"smiles": "CC1(C)OC(=CC=Nc2ccc(Cl)cc2)OC1(C)C", "Potency": "inconclusive: 50.1 µM [inhibitor, partial curve, poor fit]"},
      {"smiles": "CC(=O)c1cccc(NS(=O)(=O)c2ccc3c(c2)N(C(C)=O)CCO3)c1", "activity, negative = inhibition": "inactive: 28.7% [at 102 µM]"},
      {"smiles": "Cc1cccc(N2CCN(C(=O)c3ccc4nc(N5CCC(C)CC5)sc4c3)CC2)c1C", "Potency": "inconclusive: 6.31 µM [inhibitor, partial curve, poor fit]"},
      {"smiles": "CCn1c(/C=C/N(C(C)=O)c2ccccc2)[n+](CC)c2ccc(Cl)cc21", "Potency": "active: 79.4 µM"},
      {"smiles": "CCn1c(SCc2nc3ccccc3c(=O)[nH]2)nc2ccccc2c1=O", "activity, negative = inhibition": "inactive: 5.57%"},
      {"smiles": "Cc1cccc(C)c1NC(=O)C1CCCN1C(=O)Nc1cccc(F)c1", "note": "(stereo not drawn)", "Potency": "inconclusive: 89.1 µM [inhibitor, partial curve, poor fit]"},
      {"smiles": "CC(C)(C)c1ccc(S(=O)(=O)NCC(=O)Nc2sc3c(c2C(N)=O)CCCC3)cc1", "Potency": "active: 50.1 µM"},
      {"smiles": "Oc1ccc2ccccc2c1CNc1ccccn1", "Potency": "active: 8.91 µM"},
      {"smiles": "O=C(NCc1ccco1)c1cccc(NS(=O)(=O)c2ccccc2F)c1", "Potency": "inconclusive: 89.1 µM [inhibitor, single point]"},
      {"smiles": "COc1cc(/C=N/N(c2ccccc2)c2ccccc2)ccc1O", "Potency": "active: 28.2 µM"},
      {"smiles": "COc1ccc(S(=O)(=O)N(C(=O)C(C)C)c2ccc3oc(=O)sc3c2)cc1", "Potency": "active: 7.94 µM"},
      {"smiles": "CCC(O)(c1ccc(OC)cc1)C(CN1CCOCC1)c1ccccc1", "note": "(stereo not drawn)", "Potency": "inconclusive: 50.1 µM [inhibitor, partial curve]"},
      {"smiles": "C/C(C/C(C)=C1/SC(=S)NC1=O)=C1\\SC(=S)NC1=O", "Potency": "active: 28.2 µM"},
      {"smiles": "COc1ccc2c(c1OC)C(=O)N1C(C(=O)O)Cc3c([nH]c4ccccc34)C21", "note": "(stereo not drawn)", "Potency": "inconclusive: 35.5 µM [inhibitor, single point]"},
      {"smiles": "Cc1ccc(C(=O)NC(=S)NNC(=O)CCN2CCOCC2)cc1", "Potency": "active: 8.91 µM"},
      {"smiles": "COc1ccc(C(O)(c2ccccc2OC)C(CN2CCOCC2)c2ccccc2)cc1", "note": "(stereo not drawn)", "Potency": "inconclusive: 3.55 µM [inhibitor, partial curve, poor fit]"},
      {"smiles": "Cc1onc(NC(=O)c2ccc([N+](=O)[O-])o2)c1Br", "Potency": "inconclusive: 89.1 µM [inhibitor, single point]"},
      {"smiles": "CCCSc1ncc(Cl)c(C(=O)Nc2ccc(S(=O)(=O)N3CCCC(C)C3)cc2)n1", "note": "(stereo not drawn)", "activity, negative = inhibition": "inactive: -27%"},
      {"smiles": "O=C(N/N=C/c1ccc(N2CCCCC2)o1)c1ccccc1", "Potency": "active: 10 µM"},
      {"smiles": "C/C=C/C=C\\C(=O)Nc1cccc(C2=NOC3(C2)C[C@H](C(N)=O)N(C(=O)/C=C/C)C3)c1", "note": "(stereo partly drawn)", "Potency": "inconclusive: 35.5 µM [inhibitor, single point]"},
      {"smiles": "CCOC(=O)C(=CNc1ccc(N2CCOCC2)cc1)C(=O)OCC", "Potency": "inconclusive: 89.1 µM [inhibitor, partial curve, poor fit]"},
      {"smiles": "COc1cc(/C=C2\\SC(=S)N(Nc3ccccc3)C2=O)cc(OC)c1OC", "activity, negative = inhibition": "inconclusive: -90.8% [inhibitor]"},
      {"smiles": "COc1ccc(NC2CCCN(C(=O)c3ccc4nccnc4c3)C2)cc1OC", "note": "(stereo not drawn)", "Potency": "inconclusive: 25.1 µM [inhibitor, partial curve]"},
      {"smiles": "Cn1c(=O)n(-c2cccc(Cl)c2)c(=O)n1C", "activity, negative = inhibition": "inactive: 6.95%"},
      {"smiles": "N#Cc1ccccc1S(=O)(=O)N1CCN(C(=O)C2COc3ccccc3O2)CC1", "note": "(stereo not drawn)", "Potency": "inconclusive: 35.5 µM [inhibitor, single point]"},
      {"smiles": "COc1ccc(S(=O)(=O)N2Cc3ccccc3CC2C(=O)O)cc1", "note": "(stereo not drawn)", "Potency": "inconclusive: 3.98 µM [inhibitor, full curve, poor fit]"}
    ]}
  ]
}
